Results: the supplement of paper PMC10126150
Values marked as one replicate rest on one cluster of the flow cell; about a third of the high ones do not repeat.

Tested on: ATP
Assay: switch fluorescence ratio, 500 uM ATP over buffer (Cy3 cluster intensity, sum of 5 cycles each) (fold (ratio)); higher = stronger signal-on switching upon ATP binding; sequences stand for … in TCGTCGGCAGCGTCAGATGTGTATAAGAGACAGTTTTTTTTTTTTTTTTTTTTTTTTT…TC
Settings: aptamer strand: ATP DNA aptamer (quencher-CACCTGGGGGAGTATTGCGGAGGAAGG + anchor), 100 nM annealed; ATP concentration: 500 uM; one replicate
Outline: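 Between each of five buffer/ATP cycles, the flow-cell was stripped with NaOH and re-annealed. Each cycle imaged Cy3-labelled switching-strand clusters, annealed to 100 nM quencher-labelled ATP aptamer on a modified Illumina MiSeq flow-cell, first in selection buffer and then after 15 min with 500 uM ATP at 22 °C. The fluorescence ratio is summed target-cycle over summed buffer-cycle Cy3 intensity per cluster, averaged per switch-domain sequence, with clusters outside 100-1000 RFU excluded.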
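Further: ATP exposure 15 min at 22 °C before imaging.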

Sequence	switch fluorescence ratio
GCTAGGCTCG	1.01
CGTGCAAAAG	1.06
TGGCTGGACT	1.05
CCGTTCTTAG	1.04
ATTGCTTCT	1.01
CCAAATAAAG	1.01
TTATTAGAAA	1.04
ATGTGTAATA	0.955
GAAAAGACCC	1
GTGGCGCATC	1.04
TTGTAATAGA	1.76
CGAACGTTGG	1.04
GCTTAAGTGG	1
ATGTTCAGGG	1.02
TTCATGGAT	0.981
CAGCTTGCAT	1.03
CGAGCCTGGA	0.987
TCTACCAACG	1.34
AAGGAGCGTT	0.975
ATTCAGCGTA	1.01
TATTTTACGA	0.995
TGGAGCAAAT	5
TCTAGCTTGA	1.02

Sequence	switch fluorescence ratio
TTGGATGAGT	0.977
CGGTCATTTA	1.03
AAACCACTGT	1.02
TTTAACTACT	1.04
AGTATTATG	0.96
TCGGCCTGCG	0.936
GGCACCGGCA	1.03
CATGGTCTTG	0.988
AGTGCAAGAA	1.24
ATTTTTCCT	1.05
AGGGGTTGTC	1.01
GACATGGGTC	0.978
CCAACATGG	1
GATGTTATTT	0.954
AAAAGAGTTT	0.957
AAGTGGAAGG	1
ATGTGCCAGG	1.09
CTACGGTATA	1.39
AGAGGGTAGC	0.982
TAGACGGCAT	0.98
AAGTATGG	1.01
AGTAAACCCG	0.968
CTTGCGTGGA	1.02

Sequence	switch fluorescence ratio
CGGTGGCGAA	3.1
CTGGAATCGA	1.06
CGAGATGCGG	0.996
AAAAAGGTAG	1.04
GGAATATACA	1.03
TTTGAGTGGA	0.984
CCACGAACTT	1.41
GCGAATGCAC	0.999
GGAGGGGTAG	1.06
TGAGATGGG	1.01
AGGAACCTTT	1.26
TCATTGGGCG	1.03
CATTAGGCCT	1
GAGCCTAGCG	1.04
TCGGCAAATG	1.05
TAGTCTTTGT	0.961
TTCAGGGAG	1.01
ACCTTACGAT	1.62
ACAGCTGCTG	1.03
TGAGTAGCAT	0.979
CTGTTAGCTA	1.24
CGAGTGAGGA	1.01
CGTAAGAGGG	1.03

Sequence	switch fluorescence ratio
AAAGTTTCTT	1.02
ATTCCATGT	1.01
AGGACCACAT	1.07
AATCCTGTAG	1.07
CAAAGTTG	1.03
CCAACGACGA	2.9
CTTGGTGGAT	0.993
GTGATCTGGA	0.962
TCTGAATGCC	1.04
GGTACTGACT	1.12
TATCGGCATC	1.04
GTATCAGTTT	1.01
TTTCGCCGAG	1.02
ATCGCGGTCA	1.02
AAACGGGGCA	0.982
ATACTCACGT	1.26
TAAAACCACG	1.05
CAACGTATTG	1.04
TGAGGGCCTC	0.982
GATGTAGACC	0.982
CCCCTGTCTG	1.06
CCATTGGATT	1.02
AGGGTTCGAA	1.06

Sequence	switch fluorescence ratio
CTACGCCTCA	1.8
ATCGCGAGGG	1.04
GATTTAAGAA	1.02
CGAGGAAGTG	1
GACCTTTCAG	1.01
TTTATCATGT	1.03
ACAAAAGAGG	0.981
CCAAGGGTGG	0.994
TCCACGCATG	1.5
AAAGCCCGCC	1.07
GATTCCCCAA	1.01
ACTCCTCGGA	1.11
ATTGTCTAT	1.01
TTGTAGTGA	1
GCTGTCTGCA	0.988
CTATTCATGG	0.979
GTTATGGCAG	0.976
TTCACTATCC	1.04
GGGCGGGATA	1.01
AAGGGTAGCA	1.04
GTTTGCGTTT	1.12
GATGCGTTT	0.99
GGTGGTGCCA	0.983

Sequence	switch fluorescence ratio
ATGTATGGGA	0.954
TACTTCATG	0.984
CTGCGTAAAC	3.2
GCGCCCTTTG	1.04
CTCGATCAGT	1.01
CTGGTGTCGG	0.972
GAGTAAATGC	1.17
GGCCTAGCTT	0.999
TTAAGTGGTC	1.12
ATTTACGGAC	1.48
ACTATATAGT	1.03
GATGTGGCGA	1.02
GACACTGAAG	1.03
CCCCAGCTGT	3.05
GCCGACCACT	1.03
CCGAATTTGG	1.07
GTTCCGGAAC	0.985
GCTTTATATT	1.06
TCAGTTAAAG	1.01
CTAGTTCCGG	0.971
TTTTATGAGT	1.04
TCGAGCCGTG	1.02
CAGGTGGTAG	0.99

Sequence	switch fluorescence ratio
TGGGGAGGC	1.06
CGTGCCTCGG	0.994
GTATAACGTT	0.98
GAGATATACG	0.98
GCCCAGTGAG	1.86
AGACGATTCC	1.05
TTTCAAGGTC	0.971
TGTCGTTTGG	0.962
AAGAAATGG	0.948
GAGAAGTATG	1.04
ATCGGCTGAA	0.995
TTAATAACAG	1.02
CCGCTGTCGG	1.1
ACTGCGTTTT	0.972
CTTAGTTGCA	0.985
TGCTCGGGTA	1.01
CCCTAGGGAA	1.04
ATCTGAGACA	1.02
CATGGGCGTG	0.988
